Measurements reported in the supplement of paper PMC9151546.
Most values come without repeats; read them as rough.

Columns and labels:
CHO-K1 [1] = experiment: hypodiploid nuclei frequency (% of nucleated events); higher = more hypodiploid events (aneugenic)
Procedure: (§1)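 Flow-cytometric in vitro micronucleus assay (Litron MicroFlow) in CHO-K1 cells in 96-well plates, 19 concentrations (4.5-200 µM, n=1 per concentration). Without S9, cells were exposed for 24 h and sampled at 48 h. With Aroclor 1254-induced rat liver S9, cells were exposed for 3-4 h and sampled at 27-28 h. Read-outs are %MN and %hypodiploid nuclei relative to nucleated events, and relative survival as the nuclei-to-bead ratio versus the 1% DMSO vehicle control (x100).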

CHO-K1 [2] = experiment: micronucleus frequency (% of nucleated events); higher = more micronuclei (genotoxic)
CHO-K1 [3] = experiment: relative survival (nuclei to bead ratio vs DMSO control) (% of vehicle control); higher = more surviving cells
Procedure: as §1
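For hypodiploid nuclei frequency (% of nucleated events) in this document: hypodiploid nuclei gated on a flow cytometer with 488 nm excitation after SYTOX Green staining, cultures at 37 °C, positive controls vinblastine without S9 and cyclophosphamide with S9.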
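For micronucleus frequency (% of nucleated events) in this document: cells lysed with nuclei stained by SYTOX Green, then micronucleus-gated events counted against nucleated events by flow cytometry with 488 nm excitation.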
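For relative survival (nuclei to bead ratio vs DMSO control) in this document: Lysed-cell nuclei stained with SYTOX Green and counted against counting beads by flow cytometry at 488 nm excitation, with vinblastine (no S9) and cyclophosphamide (plus S9) as positive controls.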

O=[N+]([O-])c1ccccc1 [Nitrobenzene]
Details	hypodiploid nuclei frequency, CHO-K1 [1] [%]	micronucleus frequency, CHO-K1 [2] [%]	relative survival, CHO-K1 [3]
concentration: 4.48 (µM), S9 metabolic activation: with S9, exposure time: 3-4 hours	0.38	0.74	117
concentration: 4.48 (µM), S9 metabolic activation: without S9, exposure time: 24 hours	0.86	1.56	111
concentration: 5.6 (µM), S9 metabolic activation: with S9, exposure time: 3-4 hours	0.24	1.28	135
concentration: 5.6 (µM), S9 metabolic activation: without S9, exposure time: 24 hours	0.72	1.46	127
concentration: 7 (µM), S9 metabolic activation: with S9, exposure time: 3-4 hours	0.18	0.72	131
concentration: 7 (µM), S9 metabolic activation: without S9, exposure time: 24 hours	0.72	1.2	122
concentration: 8.75 (µM), S9 metabolic activation: with S9, exposure time: 3-4 hours	0.18	1.02	130
concentration: 8.75 (µM), S9 metabolic activation: without S9, exposure time: 24 hours	1.02	1.6	107
concentration: 10.9 (µM), S9 metabolic activation: with S9, exposure time: 3-4 hours	0.18	0.66	102
concentration: 10.9 (µM), S9 metabolic activation: without S9, exposure time: 24 hours	0.86	1.6	112
concentration: 13.7 (µM), S9 metabolic activation: with S9, exposure time: 3-4 hours	0.2	0.86	116
concentration: 13.7 (µM), S9 metabolic activation: without S9, exposure time: 24 hours	0.84	1.5	103
concentration: 17.1 (µM), S9 metabolic activation: with S9, exposure time: 3-4 hours	0.2	1.14	121
concentration: 17.1 (µM), S9 metabolic activation: without S9, exposure time: 24 hours	0.74	1.24	120
concentration: 21.4 (µM), S9 metabolic activation: with S9, exposure time: 3-4 hours	0.2	0.72	89.6
concentration: 21.4 (µM), S9 metabolic activation: without S9, exposure time: 24 hours	0.72	1.22	101
concentration: 26.7 (µM), S9 metabolic activation: with S9, exposure time: 3-4 hours	0.16	1.02	151
concentration: 26.7 (µM), S9 metabolic activation: without S9, exposure time: 24 hours	1.7	0.94	87.6
concentration: 33.4 (µM), S9 metabolic activation: with S9, exposure time: 3-4 hours	0.22	0.52	117
concentration: 33.4 (µM), S9 metabolic activation: without S9, exposure time: 24 hours	3.48	1.14	85.7
concentration: 41.7 (µM), S9 metabolic activation: with S9, exposure time: 3-4 hours	0.26	1.16	128
concentration: 41.7 (µM), S9 metabolic activation: without S9, exposure time: 24 hours	1.42	1.2	102
concentration: 52.2 (µM), S9 metabolic activation: with S9, exposure time: 3-4 hours	0.34	1.86	120
concentration: 52.2 (µM), S9 metabolic activation: without S9, exposure time: 24 hours	0.94	1.26	123
concentration: 65.2 (µM), S9 metabolic activation: with S9, exposure time: 3-4 hours	0.34	0.64	111
concentration: 65.2 (µM), S9 metabolic activation: without S9, exposure time: 24 hours	1.12	1.18	119
concentration: 81.5 (µM), S9 metabolic activation: with S9, exposure time: 3-4 hours	0.3	1.02	130
concentration: 81.5 (µM), S9 metabolic activation: without S9, exposure time: 24 hours	1.14	1.2	101
concentration: 102 (µM), S9 metabolic activation: with S9, exposure time: 3-4 hours	0.28	1.46	105
concentration: 102 (µM), S9 metabolic activation: without S9, exposure time: 24 hours	1.34	1.36	113
concentration: 127 (µM), S9 metabolic activation: with S9, exposure time: 3-4 hours	0.14	0.72	117
concentration: 127 (µM), S9 metabolic activation: without S9, exposure time: 24 hours	1.22	1.28	98.3
concentration: 159 (µM), S9 metabolic activation: with S9, exposure time: 3-4 hours	0.18	0.62	103
concentration: 159 (µM), S9 metabolic activation: without S9, exposure time: 24 hours	1.52	1.4	121
concentration: 199 (µM), S9 metabolic activation: with S9, exposure time: 3-4 hours	0.16	0.86	97.9
concentration: 199 (µM), S9 metabolic activation: without S9, exposure time: 24 hours	1.98	2.24	99.3

O=C1CN(/N=C/c2ccc([N+](=O)[O-])o2)C(=O)N1 [Nitrofurantoin]
Details	hypodiploid nuclei frequency, CHO-K1 [1] [%]	micronucleus frequency, CHO-K1 [2] [%]	relative survival, CHO-K1 [3]
concentration: 4.5 (µM), S9 metabolic activation: with S9, exposure time: 3-4 hours	0.18	1.08	91.3
concentration: 4.5 (µM), S9 metabolic activation: without S9, exposure time: 24 hours	0.4	1.48	127
concentration: 5.63 (µM), S9 metabolic activation: with S9, exposure time: 3-4 hours	0.26	1.52	93.4
concentration: 5.63 (µM), S9 metabolic activation: without S9, exposure time: 24 hours	0.32	1.1	147
concentration: 7.04 (µM), S9 metabolic activation: with S9, exposure time: 3-4 hours	0.22	1.02	88.5
concentration: 7.04 (µM), S9 metabolic activation: without S9, exposure time: 24 hours	0.46	1.7	96.7
concentration: 8.8 (µM), S9 metabolic activation: with S9, exposure time: 3-4 hours	0.18	1.44	112
concentration: 8.8 (µM), S9 metabolic activation: without S9, exposure time: 24 hours	0.52	1.4	120
concentration: 11 (µM), S9 metabolic activation: with S9, exposure time: 3-4 hours	0.26	1.04	110
concentration: 11 (µM), S9 metabolic activation: without S9, exposure time: 24 hours	0.64	1.22	98.2
concentration: 13.7 (µM), S9 metabolic activation: with S9, exposure time: 3-4 hours	0.36	1.36	124
concentration: 13.7 (µM), S9 metabolic activation: without S9, exposure time: 24 hours	0.56	1.08	112
concentration: 17.2 (µM), S9 metabolic activation: with S9, exposure time: 3-4 hours	0.36	1.74	111
concentration: 17.2 (µM), S9 metabolic activation: without S9, exposure time: 24 hours	0.74	1.4	112
concentration: 21.5 (µM), S9 metabolic activation: with S9, exposure time: 3-4 hours	0.16	1.22	102
concentration: 21.5 (µM), S9 metabolic activation: without S9, exposure time: 24 hours	0.5	1.66	116
concentration: 26.8 (µM), S9 metabolic activation: with S9, exposure time: 3-4 hours	0.2	1.28	97.1
concentration: 26.8 (µM), S9 metabolic activation: without S9, exposure time: 24 hours	0.7	1.9	68.5
concentration: 33.6 (µM), S9 metabolic activation: with S9, exposure time: 3-4 hours	0.2	1.16	94.8
concentration: 33.6 (µM), S9 metabolic activation: without S9, exposure time: 24 hours	0.72	1.72	91.4
concentration: 41.9 (µM), S9 metabolic activation: with S9, exposure time: 3-4 hours	0.4	1.1	93.7
concentration: 41.9 (µM), S9 metabolic activation: without S9, exposure time: 24 hours	0.58	1.54	93.1
concentration: 52.4 (µM), S9 metabolic activation: with S9, exposure time: 3-4 hours	0.2	0.94	81.9
concentration: 52.4 (µM), S9 metabolic activation: without S9, exposure time: 24 hours	0.6	1.66	96.7
concentration: 65.5 (µM), S9 metabolic activation: with S9, exposure time: 3-4 hours	0.26	1.04	91.8
concentration: 65.5 (µM), S9 metabolic activation: without S9, exposure time: 24 hours	0.7	1.64	78.7
concentration: 81.9 (µM), S9 metabolic activation: with S9, exposure time: 3-4 hours	0.24	1.54	88.2
concentration: 81.9 (µM), S9 metabolic activation: without S9, exposure time: 24 hours	0.62	2.36	108
concentration: 102 (µM), S9 metabolic activation: with S9, exposure time: 3-4 hours	0.46	1.86	95.1
concentration: 102 (µM), S9 metabolic activation: without S9, exposure time: 24 hours	0.96	2.68	60.5
concentration: 128 (µM), S9 metabolic activation: with S9, exposure time: 3-4 hours	0.38	1.64	104
concentration: 128 (µM), S9 metabolic activation: without S9, exposure time: 24 hours	1.2	3.08	55.8
concentration: 160 (µM), S9 metabolic activation: with S9, exposure time: 3-4 hours	0.28	1.24	87.3
concentration: 160 (µM), S9 metabolic activation: without S9, exposure time: 24 hours	1.08	3.66	52.2
concentration: 200 (µM), S9 metabolic activation: with S9, exposure time: 3-4 hours	0.22	1.22	80.7
concentration: 200 (µM), S9 metabolic activation: without S9, exposure time: 24 hours	0.98	3.2	48.8

NC(=O)N/N=C/c1ccc([N+](=O)[O-])o1 [Nitrofurazone]
Details	hypodiploid nuclei frequency, CHO-K1 [1] [%]	micronucleus frequency, CHO-K1 [2] [%]	relative survival, CHO-K1 [3]
concentration: 4.5 (µM), S9 metabolic activation: with S9, exposure time: 3-4 hours	0.16	1.32	173
concentration: 4.5 (µM), S9 metabolic activation: without S9, exposure time: 24 hours	0.56	2.02	128
concentration: 5.63 (µM), S9 metabolic activation: with S9, exposure time: 3-4 hours	0.3	1.6	165
concentration: 5.63 (µM), S9 metabolic activation: without S9, exposure time: 24 hours	0.66	1.36	134
concentration: 7.04 (µM), S9 metabolic activation: with S9, exposure time: 3-4 hours	0.32	1.7	166
concentration: 7.04 (µM), S9 metabolic activation: without S9, exposure time: 24 hours	0.72	1.68	128
concentration: 8.8 (µM), S9 metabolic activation: with S9, exposure time: 3-4 hours	0.24	1.5	187
concentration: 8.8 (µM), S9 metabolic activation: without S9, exposure time: 24 hours	0.76	1.62	103
concentration: 11 (µM), S9 metabolic activation: with S9, exposure time: 3-4 hours	0.34	1.48	158
concentration: 11 (µM), S9 metabolic activation: without S9, exposure time: 24 hours	0.48	1.6	121
concentration: 13.7 (µM), S9 metabolic activation: with S9, exposure time: 3-4 hours	0.2	1.5	173
concentration: 13.7 (µM), S9 metabolic activation: without S9, exposure time: 24 hours	0.78	1.52	119
concentration: 17.2 (µM), S9 metabolic activation: with S9, exposure time: 3-4 hours	0.36	1.56	159
concentration: 17.2 (µM), S9 metabolic activation: without S9, exposure time: 24 hours	0.68	2.14	92.9
concentration: 21.5 (µM), S9 metabolic activation: with S9, exposure time: 3-4 hours	0.3	1.78	160
concentration: 21.5 (µM), S9 metabolic activation: without S9, exposure time: 24 hours	0.62	1.68	117
concentration: 26.8 (µM), S9 metabolic activation: with S9, exposure time: 3-4 hours	0.34	1.68	151
concentration: 26.8 (µM), S9 metabolic activation: without S9, exposure time: 24 hours	0.68	2.44	92.9
concentration: 33.6 (µM), S9 metabolic activation: with S9, exposure time: 3-4 hours	0.44	1.88	125
concentration: 33.6 (µM), S9 metabolic activation: without S9, exposure time: 24 hours	0.76	2.72	68.7
concentration: 41.9 (µM), S9 metabolic activation: with S9, exposure time: 3-4 hours	0.18	1.04	137
concentration: 41.9 (µM), S9 metabolic activation: without S9, exposure time: 24 hours	0.6	3.04	72.2
concentration: 52.4 (µM), S9 metabolic activation: with S9, exposure time: 3-4 hours	0.18	1.76	111
concentration: 52.4 (µM), S9 metabolic activation: without S9, exposure time: 24 hours	0.74	2.78	71.8
concentration: 65.5 (µM), S9 metabolic activation: with S9, exposure time: 3-4 hours	0.14	1.54	184
concentration: 65.5 (µM), S9 metabolic activation: without S9, exposure time: 24 hours	1.16	3.88	58.3
concentration: 81.9 (µM), S9 metabolic activation: with S9, exposure time: 3-4 hours	0.28	1.48	161
concentration: 81.9 (µM), S9 metabolic activation: without S9, exposure time: 24 hours	1.14	3.42	80.3
concentration: 102 (µM), S9 metabolic activation: with S9, exposure time: 3-4 hours	0.52	1.64	163
concentration: 102 (µM), S9 metabolic activation: without S9, exposure time: 24 hours	1.36	5.38	64.7
concentration: 128 (µM), S9 metabolic activation: with S9, exposure time: 3-4 hours	0.22	1.68	166
concentration: 128 (µM), S9 metabolic activation: without S9, exposure time: 24 hours	1.06	4.72	57.8
concentration: 160 (µM), S9 metabolic activation: with S9, exposure time: 3-4 hours	0.24	1.56	141
concentration: 160 (µM), S9 metabolic activation: without S9, exposure time: 24 hours	1.68	5.14	56
concentration: 200 (µM), S9 metabolic activation: with S9, exposure time: 3-4 hours	0.22	2	151
concentration: 200 (µM), S9 metabolic activation: without S9, exposure time: 24 hours	1.08	5.42	56.4
